Experimental data reported in PubChem BioAssay AID602393 (Broad Institute, 2012).
Among all 350,000 compounds or so, about 7,000 (2%) were called active. This list was built around the results that the source calls inconclusive (neither active nor inactive); the mix of calls is not that of the screen. Cut-off read from the data, not from the text of the source: active = activation above about 40%; inconclusive = no clear call, values can overlap the other calls; inactive = below that.

Assay: raisers of Bmi1 knock-in reporter signal – mouse ES cells, Bmi1 luciferase knock-in, single point, esBAF inhibitor project, primary screen (AID 602393);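 note: 0% = median of the plate's neutral control wells and 100% = double that signal; a rise in the Bmi1 reporter signal indicates esBAF inhibition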
Conditions: 24 h, at 12.5 µM, hits give high values
With `CCCCCn1c(=O)c(C(=O)Nc2ccccc2C)c(O)c2ccccc21` the reporter increase was active: 51.5%. For `COC(=O)C(O)(c1ccc(NC(=O)c2ccccc2)cc1)C(F)(F)F` (configuration not stated), the reporter increase was inconclusive: 47.8%. For `CCOC(=O)C(O)(c1ccc(NC(=O)NC2CCCCC2)cc1)C(F)(F)F` (configuration not stated), the reporter increase was active: 45.6%. With `O=C(Cn1cc(C(=O)c2ccccc2F)c2ccccc21)NCc1ccco1` the reporter increase was inactive: 8.04%. With `CC(=O)Nc1ccccc1C(=O)OCc1ccccc1F` the reporter increase was inconclusive: 37.2%. In the case of `Cc1ccc(N2C(=O)NC(=O)C3(Cc4ccccc4N4CCN(c5ccccc5)CC43)C2=O)cc1` (configuration not stated), the reporter increase was inconclusive: 44.5%. With `Cc1c(OC(=O)N(C)C)ccc2c1O/C(=C\c1ccco1)C2=O` the reporter increase was inconclusive: 52.8%. For `CCCCCCC(=O)c1c(O)n(-c2ccc(OC)cc2)c(=O)[nH]c1=O` (tested in a mixture with another compound), the reporter increase was inactive: -7.6%. With `Cc1nc2c(-c3ccccc3)c(C)nn2c(C)c1CCC(=O)N1CCC2(CC1)OCCO2` the reporter increase was inactive: -2.79%. With `O=C(c1ccccc1)C1NC1c1ccccc1` (configuration not stated) the reporter increase was active: 49.1%. In the case of `COC(=O)[C@H]1[C@H](CO)[C@H]2Cn3c(ccc(C4=CCCCC4)c3=O)[C@@H]1N2CC1CC1`, the reporter increase was inactive: -1.38%. With `Cc1ccc(/C=C2\C(=O)NC(=O)N(CCc3ccc(F)cc3)C2=O)s1` the reporter increase was inconclusive: 39.8%. With `COC(=O)[C@H]1[C@H](CO)[C@H]2Cn3c(ccc(C4=CCCCC4)c3=O)[C@@H]1N2C(=O)CC1CC1` the reporter increase was inactive: -2.24%. With `O=C1c2ccccc2-c2cccc3cccc1c23` the reporter increase was inconclusive: 43.8%. With `CC(=O)OC1(c2ccccc2)CCN(C)C2CCCCC21` (configuration not stated) the reporter increase was inactive: -1.03%. For `CCCNC(=O)N1[C@@H]2Cn3c(ccc(-c4ccccc4OC)c3=O)[C@H]1[C@@H](C(=O)O)[C@@H]2CO`, the reporter increase was inactive: -0.0895%. In the case of `O=C1NC(=O)[C@]2(Cc3ccccc3N3CCN(c4ccccc4)CC32)C(=O)N1c1ccccc1` (some centres not stated), the reporter increase was inconclusive: 41.5%. In the case of `Clc1ccccc1Nc1ncnc(-n2cccc2)n1`, the reporter increase was inconclusive: 48.9%. In the case of `CN(C)C(=O)Oc1ccc(C(=O)c2ccccc2)cc1`, the reporter increase was inconclusive: 42.8%. For `COc1ccc(C#Cc2ccc([C@H]3[C@@H](CO)N4CCCCN(C(=O)Cc5ccccc5)C[C@@H]34)cc2)cc1`, the reporter increase was inactive: -6.7%. In the case of `CCOc1cc(CNCCc2ccccc2F)ccc1OC`, the reporter increase was inactive: -2.27%. For `O=C(N/N=C/c1c(O)n(Cc2ccco2)c(=O)[nH]c1=O)c1ccccc1O`, the reporter increase was inconclusive: 55.5%. For `COc1ccc(N=Cc2c(O)n(C)c(=O)n(C)c2=O)cc1`, the reporter increase was inconclusive: 40.4%. For `CN(C)C(=O)Oc1ccc2c(c1)O/C(=C\c1ccc(Cl)cc1)C2=O`, the reporter increase was inconclusive: 37.8%. In the case of `CC(C)c1ccc(N=Nc2c(O)[nH]c(=O)[nH]c2=O)cc1`, the reporter increase was inconclusive: 27.9%. In the case of `COc1cc(C(CN)CC(=O)O)ccc1O` (configuration not stated), the reporter increase was inactive: -6.24%. In the case of `O=C1NC(c2cccnc2)Nc2sc3c(c21)CCCC3` (configuration not stated), the reporter increase was inconclusive: 47.6%. For `Cc1nc2ccccc2n1C1CCN(Cc2nnnn2CCc2ccccc2)CC1`, the reporter increase was inactive: -4.81%. For `C/C=C/c1ccc([C@@H]2[C@H](CO)N3CCCCN(C(=O)Cc4cccnc4)C[C@@H]23)cc1`, the reporter increase was inactive: -0.873%. With `Cc1ccc(OP2(=O)Nc3cc(C)c(C)cc3S2)cc1` (configuration not stated) the reporter increase was inconclusive: 40.6%. In the case of `COc1ccccc1OCCCn1cc(C=O)c2ccccc21`, the reporter increase was inconclusive: 51.5%. In the case of `O=C1C(=O)c2ccccc2-c2ccccc21`, the reporter increase was inconclusive: 22.2%. In the case of `O=c1c2ccccc2nc(CSc2ncnc3nc[nH]c23)n1-c1ccc(Cl)c(Cl)c1`, the reporter increase was inconclusive: 41.5%. For `O=C(c1ccc2c(c1)OCO2)C1CCCN(Cc2c(F)cccc2Cl)C1` (configuration not stated), the reporter increase was inactive: -3.46%. With `CN(C)c1ccc(CCN2CCOCC2)cc1` the reporter increase was inconclusive: 41.3%. With `C=C(C)C(Cc1c(OC)ccc(C(=O)/C=C/c2ccc(O)cc2)c1O)OO` (configuration not stated) the reporter increase was inconclusive: 42.5%. In the case of `CN(C)C(=O)Oc1ccc2c(c1)O/C(=C\c1cccc(Cl)c1)C2=O`, the reporter increase was inconclusive: 38.3%.
